# Data published in the supplement of paper PMC3334620.
# The full ranking holds about 33,000 sequences; the median of “E-score (-0.5 to 0.5)” is about -0.056, and the highest 2% start at about 0.38. Some of the results follow.
# Molecular target: Stb4 (UniProt P50104)
# Test: PBM E-score (8-mer binding enrichment) (E-score (-0.5 to 0.5)); higher = stronger / more preferred TF binding; most listed sequences are background and not binding sites
# Conditions: protein concentration: 200 nM; construct: GST-DNA-binding domain
# Method: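 Universal 'all 10-mer' protein binding microarrays (Agilent AMADID 015681) probed with GST-tagged S. cerevisiae TFs (full-length or DBD) made by in vitro transcription/translation (PURExpress), about 100-200 nM. Bound TF was detected with fluorescent anti-GST. Each ungapped 8-mer (which stands for itself and its reverse complement) is scored by the PBM enrichment score (E-score), a modified Wilcoxon-Mann-Whitney statistic from -0.5 to +0.5, computed with the Universal PBM Analysis Suite. Scale: above 0.35 generally sequence-specific binding.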
row,Sequence,PBM E-score
1,CCCTACCC,0.0628
2,AATATTCG,0.0398
3,AGGCCTCG,0.221
4,AGATGACT,-0.0669
5,GCAAACGC,0.121
6,ATCGTCCC,0.0198
7,GTTGCCGA,0.458
8,AAGCGTCG,-0.0902
9,GACCGAGA,0.339
10,AACCTCGC,-0.123
11,CCCTCCAG,-0.00501
12,CCTACGCA,-0.105
13,TAACTTGA,-0.244
14,GCCATCAA,-0.383
15,CGTCTTCC,0.0828
16,AGCCTACT,-0.287
17,CTCCATTA,-0.148
18,AAGGTGAT,-0.138
19,CGTGCCAG,-0.186
20,AGGCAGCA,-0.251
21,ACCACAAA,0.0353
22,CCTTAGAC,-0.17
23,AATATAAT,0.00554
24,CCGACGAC,0.328
25,AACGGATG,0.304

row,Sequence,PBM E-score
1,CGTCTACA,-0.11
2,CTCTCATA,-0.16
3,GTTCGGTA,0.425
4,TGGCCGAA,0.251
5,ACTTTGTG,-0.103
6,GTTACATA,-0.0592
7,GCCTGCAC,-0.139
8,ACGCGGGA,0.273
9,ACCAAATA,-0.0432
10,CGCCACGA,-0.0773
11,AGTCGCTC,-0.202
12,ATCTGAAC,-0.0451
13,ACTTCTGG,-0.253
14,CAGCATTC,-0.153
15,CATGACAC,-0.119
16,CGATGCTA,0.0421
17,CCCTAAGC,-0.18
18,CAGGGTGA,-0.0321
19,CGTGCGCA,-0.0108
20,CCAACATA,0.0764
21,CAAGTCTG,-0.246
22,AACTATCT,-0.0847
23,GCAGACGC,-0.152
24,AAGGGGTC,-0.176
25,GAGGTACA,-0.00397

row,Sequence,PBM E-score
1,AACTGAAT,-0.136
2,GCCTCCCC,-0.137
3,CTCGTCGA,-0.232
4,CTATTCGC,-0.122
5,GTAATCAA,-0.0759
6,AGTCCTGC,-0.0324
7,CTGAGCAC,-0.205
8,CCCCCTGC,-0.213
9,CGGCAAGC,0.326
10,CCGCACAG,0.0446
11,ATTCATAA,0.0701
12,CTCGTGCC,-0.0865
13,AGGCAATG,-0.227
14,CCCTGGCG,-0.122
15,CTGCTGGA,-0.292
16,CCATGACA,-0.245
17,ACAAGCCA,-0.231
18,CAGTATCG,0.0558
19,ATAAACTC,0.105
20,ACCTATTA,-0.0753
21,CAACTTGG,-0.143
22,AGGGTGAG,-0.239
23,AGAGTACT,-0.224
24,CGACATTC,-0.0162
25,ATATCCTC,-0.03

row,Sequence,PBM E-score
1,AGGGTGAC,0.0346
2,CTATATCC,0.227
3,GACCTTAA,-0.145
4,CTCTGGCC,-0.0565
5,ATGATACG,0.0744
6,GTGACCAA,-0.203
7,GAAGTCCC,0.028
8,GACGGGAA,0.208
9,AGATTTCG,0.15
10,CATTTCTA,0.0529
11,AGAGTTGA,-0.0567
12,GAACCCAC,0.113
13,TGTACCAA,-0.195
14,ACCGGCCG,0.281
15,AATCAATT,0.0361
16,AGGCACTA,-0.165
17,AGGATACC,0.0351
18,ATACGTCC,-0.00745
19,AGCTAGCG,-0.069
20,AGTTTAGA,0.087
21,CCTATAAG,-0.275
22,AGGTGGAA,-0.0313
23,ACAGATCC,0.338
24,ACAAGTCG,-0.0915
25,AAACACGT,-0.0853

row,Sequence,PBM E-score
1,ATTGGCTA,-0.0463
2,GTAACGTA,-0.192
3,CTTTATCC,0.225
4,CTCGGCAA,0.458
5,ACCGAAGA,0.359
6,CAAGCAAC,-0.12
7,AATTCTAG,-0.094
8,CTTGTTCA,-0.148
9,CCGTACGG,0.162
10,AAAGTATA,-0.133
11,ACAGTGGG,0.0192
12,ATAACGAA,-0.0854
13,CAAGGTTA,-0.00332
14,CAGACCAA,-0.144
15,ACCTCCGC,0.108
16,CAAGCACA,-0.318
17,AATAATTG,-0.0587
18,AGCGACCG,0.117
19,AACGGCGG,0.121
20,CAACAGGG,-0.116
21,GAATTAGC,0.00945
22,AGAAGTAC,-0.146
23,AAAGTAAT,0.137
24,GAGATCAC,-0.0747
25,TGCGCAAA,-0.119

row,Sequence,PBM E-score
1,AACACACA,-0.0643
2,TCACAGCA,-0.191
3,GTCGTGAA,-0.19
4,TGCCAGCA,-0.0908
5,GCGGTACC,0.235
6,CCAGAAAA,-0.108
7,CTAATGAC,-0.34
8,CCGTGGTA,0.0351
9,AACGGCCC,0.0486
10,CATCATAA,-0.0845
11,CCGATAGA,0.249
12,CAACAACG,-0.326
13,CCTTTAGA,-0.232
14,CAGTAAAA,-0.0182
15,ACGGTATC,0.0325
16,ATCGTGAA,0.0212
17,TAAGAATA,-0.127
18,ATGCGTCG,-0.0379
19,ACAGAGTG,-0.233
20,AGAATAAA,-0.194
21,GTGCCTAA,-0.266
22,AATGATAT,-0.134
23,AGGGACAT,-0.0773
24,GACGGCTA,0.168
25,GCAATAGC,0.0437

row,Sequence,PBM E-score
1,ATCAGTAA,-0.0124
2,CGCAATGA,-0.17
3,CTTCTTCA,-0.288
4,GGTCGACC,0.309
5,CATGCCCG,0.244
6,GCAAAATA,0.0575
7,CTTACTGC,0.00974
8,GTTATCAA,-0.117
9,GCGACGTA,-0.0957
10,ACCGCGAA,0.0995
11,CATACCCC,0.0861
12,CCAATAAC,-0.0398
13,CAAGCTTC,-0.104
14,ACGGAACA,0.326
15,ACCGGCTG,0.174
16,ATGATGGA,0.0187
17,ATCGATCG,-0.146
18,AATAGCTC,-0.159
19,CGACACGC,0.0369
20,GGTCATAC,-0.00835
21,GCCCCTCA,-0.00939
22,AACGTGAA,-0.148
